# Reference: PubChem BioAssay AID651820 (National Center for Advancing Translational Sciences (NCATS), 2012)
# Among all 340,000 compounds or so, about 12,000 (3.5%) were called active. Inconclusive results, whose numbers are uncertain, are shown with a selection of clear calls. The call rests on the fitted dose curve; in most records, active means well fitted inhibition curve with a large enough effect; inconclusive means small, poorly fitted or top-dose-only effect, or another doubt; inactive means no such curve, though single readings can be large or run the other way. No potency is given beside an inconclusive call; the fits are too rough.
# Assay: qHTS Assay for Inhibitors of Hepatitis C Virus (HCV)
# Conditions: Huh7.5.1 HCVcc-Cre (HCVcc is cell-culture hepatitis C virus) infection, luciferase reporter, 44 h; activity change, negative = inhibition: at 41.8 µM (top of the series)
# Summary of the method: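 Cells (1,000/well) were plated 4 h before compound, then infected with HCVcc-Cre virus (~0.5 moi). After 44 h further culture, infection was read as luciferase luminescence following a 15 min substrate incubation at room temperature.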
# On the % scale 0 is the no-effect control and ±100 the full control effect; potency means the concentration at half of the fitted maximal effect; tags describe the fitted curve by direction and shape.
Structure (SMILES),Potency,"activity change, negative = inhibition"
Cc1ccc(-c2cc(C(=O)N3CCN(c4ncccn4)CC3)c3cc(Br)ccc3n2)o1,"inconclusive [inhibitor, partial curve]",–
CC(=O)Oc1ccc(CC(C(=O)O)N2C(=O)c3ccccc3C2=O)cc1 (stereo unspecified),–,inactive: 17%
O=C(COC(=O)c1ccc(F)cc1)Nc1ccc(Cl)cn1,–,inactive: 23.1%
COc1cc(OC)cc(Oc2ccc(S(=O)(=O)N3CCCCC3)cc2[N+](=O)[O-])c1,"inconclusive [inhibitor, single point]",–
CCOC(=O)c1c(C)n(C)c2ccc(O)c(CN3CCN(C)CC3)c12,"inconclusive [inhibitor, single point]",–
COc1cccc(SCc2noc(C(=O)NCCCN3CCOCC3)c2C(=O)NCCCN2CCOCC2)c1,–,inactive: -10.3%
Cc1ccc(SC(C)C(=O)Nc2ccccc2-c2ccccc2)cc1 (stereo unspecified),"inconclusive [inhibitor, partial curve, poor fit]",–
CCOC(=O)c1c(/N=C/N(C)C)sc(/C=N/Nc2ccccc2)c1-c1ccccc1,"inconclusive [inhibitor, partial curve]",–
Cc1ccc(S(=O)(=O)N2CCC(C(=O)NC3CCCC3)CC2)cc1Cl,–,inactive: -3.99%
Cc1ccc(-c2nn3c(C)nnc3s2)cc1NC(=O)c1cccs1,"inconclusive [inhibitor, partial curve]",–
CN(C(=O)CCn1c(=S)oc2ccccc21)c1ccc(F)cc1,–,inactive: 7.59%
Clc1ccc(CN2CCc3c([nH]c4ccccc34)C2)cc1Cl,"inconclusive [inhibitor, single point]",–
CC(C)(C)c1cc(C(=O)NCc2ccccc2)ccn1,"inconclusive [inhibitor, partial curve]",–
COCCN(C(=O)COC(=O)c1cc2ccccc2cc1O)c1c(N)n(Cc2ccccc2)c(=O)[nH]c1=O,"inconclusive [inhibitor, full curve, poor fit]",–
CC1CN(S(=O)(=O)c2cccc(C(=O)NCC(c3cccs3)N3CCOCC3)c2)CC(C)O1 (stereo unspecified),–,inactive: 22%
N/C(=N\OC(=O)CSc1ccccc1)c1ccccn1,–,inactive: 13.1%
O=C(Cc1ccc(Cl)cc1)Nc1ccc(CN2CCCCC2)cc1,"inconclusive [inhibitor, partial curve]",–
Cc1c(O)cccc1C(=O)N[C@@H](CSc1ccccc1)[C@H](O)CN1C[C@H]2CCCC[C@H]2C[C@H]1C(=O)NC(C)(C)C,active: 10 µM,–
Cc1ccc(S(=O)(=O)N2CCCCC2)cc1C(=O)Nc1ccccn1,–,inactive: 7.82%
CCOC(=O)c1cc(-c2cc(OC)c(OC)c(OC)c2)nc2c1c(=O)[nH]c(=O)n2Cc1ccccc1,"inconclusive [inhibitor, partial curve]",–
CN1CCN(c2ccc(S(=O)(=O)N3CCCCC3)cc2NC(=O)c2cccc([N+](=O)[O-])c2)CC1,"inconclusive [inhibitor, single point]",–
CCOC(=O)Nc1sc2c(c1C#N)CCCC2,–,inactive: -12.4%

Structure (SMILES),Potency,"activity change, negative = inhibition"
COc1ccc(NC(=S)Nc2ccc(N)c([N+](=O)[O-])c2)cc1,–,inactive: -2.18%
O=C(O)CCC(=O)Nc1ccccc1C(=O)NC1CCCCC1,–,inactive: 14.3%
COc1ccccc1NC(=O)c1ccc2[nH]c(C)c(C)c2c1,"inconclusive [inhibitor, partial curve]",–
C=CCC1(CC=C)CCCN1C(=O)C1CCC(=O)N(CCc2ccccc2)C1 (stereo unspecified),–,inactive: -17.3%
COc1ccc(N(C)S(=O)(=O)c2cccc(C(=O)N3CCN(c4cccc(C)c4C)CC3)c2)cc1,"inconclusive [inhibitor, partial curve]",–
CSc1ccccc1NC(=O)CN(C)C(=O)COc1ncnc2ccccc12,"inconclusive [inhibitor, single point]",–
COc1cccc2cc(-c3cc(=O)oc4cc(C)c(OCC(C)=O)cc34)oc12,"inconclusive [inhibitor, full curve, poor fit]",–
COc1ccc(-n2c(COc3ccc4ccccc4c3)nnc2SCC(=O)NCc2ccco2)cc1,"inconclusive [inhibitor, single point]",–
Cc1cccc(CN2C(=O)N/C(=C/c3cc(C)n(-c4cc(C)ccn4)c3C)C2=O)c1,active: 1.78 µM,–
COc1ccc(/C=C(/NC(=O)c2ccccc2)c2nc3ccc(Cl)cc3[nH]2)cc1OC,"inconclusive [inhibitor, partial curve]",–
O=C(Nc1ccc2c(c1)OCCO2)c1cccs1,–,inactive: 2.22%
Cc1cccc(Oc2sc(C(=O)c3ccccc3)c(N)c2C#N)c1C,"inconclusive [inhibitor, partial curve]",–
Cn1nc(-c2ccccc2)cc1NC(=O)Nc1ccc(C(C)(C)C)cc1,"inconclusive [inhibitor, single point]",–
Cc1cc(Cl)ccc1NC(=O)CN1C(=O)NC2(CCCc3ccccc32)C1=O (stereo unspecified),"inconclusive [inhibitor, full curve, poor fit]",–
CN1CCc2nc(SCc3ccccc3Br)c(C#N)cc2C1,active: 7.94 µM,–
COc1cccc(CN(C)C(=O)c2cc(-c3ccc(OC)c(OC)c3)nc3ccccc23)c1,"inconclusive [inhibitor, single point]",–
Cc1ccc(S(=O)(=O)N2CCOCC2)cc1NC(=O)C(c1ccc(Cl)cc1)C(C)C (stereo unspecified),"inconclusive [inhibitor, single point]",–
CSCCC(NC(=O)c1ccccc1)C(=O)N1CCN(C(C)=O)CC1 (stereo unspecified),–,inactive: 6.71%
O=C(CSc1nc2c(oc3ccccc32)c(=O)n1CC1CCCO1)NCc1ccccc1 (stereo unspecified),"inconclusive [inhibitor, partial curve]",–
CCOc1ccc(S(=O)(=O)N(C)c2ccc(OCC(=O)Nc3nc(-c4cc(OC)ccc4OC)cs3)cc2)cc1,"inconclusive [inhibitor, full curve]",–
CC1CCCN(C(=O)COC(=O)c2ccc3[nH]c4c(c3c2)CCCC4)C1 (stereo unspecified),"inconclusive [inhibitor, full curve]",–
CCC(=O)Nc1ccc(-c2ccc(NC(=O)CC)c(OC)c2)cc1OC,"inconclusive [inhibitor, partial curve]",–

Structure (SMILES),Potency,"activity change, negative = inhibition"
CCc1cc(OCCCCNCc2ccccc2)ccc1Cl,"inconclusive [inhibitor, single point]",–
CCSc1ccc2c(c1)N(CCCN1CCN(C)CC1)c1ccccc1S2,"inconclusive [inhibitor, single point]",–
O=C(NCC1CCCO1)C1CCN(C(=O)c2ccc(Cl)cc2)CC1 (stereo unspecified),–,inactive: 16.5%
CC(=O)c1ccsc1-c1c(C)cc2oc(=O)cc(-c3ccccc3)c2c1C,"inconclusive [inhibitor, single point]",–
COc1ccc(S(=O)(=O)N2CC3CCCN3c3cc(C(F)(F)F)ccc32)cc1 (stereo unspecified),"inconclusive [inhibitor, full curve, poor fit]",–
NC(=O)c1ccc(-n2nnnc2SCc2ccc(F)cc2)cc1,"inconclusive [inhibitor, partial curve]",–
CCOc1ccc(NC(=O)CN(C)C(=O)c2ccc(-c3ccc(C(C)=O)cc3)o2)cc1OCC,"inconclusive [inhibitor, partial curve]",–
CCc1ccccc1N(CC)C(=O)C1CCN(c2ncnc3c2nc2n3CCCCC2)CC1,"inconclusive [inhibitor, single point]",–
COc1cc(OC)cc(C(=O)NCc2ccc(-n3cccc3)cc2)c1,"inconclusive [inhibitor, single point]",–
Cc1ccc(-c2nc(N/N=C/c3cccnc3)c3ccccc3n2)cc1,"inconclusive [inhibitor, single point]",–
Nc1ccc2nc(Cc3ccccc3)[nH]c2c1,"inconclusive [inhibitor, full curve]",–
O=C(Nc1sc2c(c1C(=O)O)CCCCC2)c1cccs1,–,inactive: -8.18%
CC(C)C[C@@H](CNCC(=O)[C@H](Cc1c[nH]c2ccccc12)NC(=O)c1[nH]cnc1C(=O)N[C@H](CN)CC(C)C)NC(=O)c1nc[nH]c1C(=O)N[C@@H](CC(=O)O)C(=O)O,"inconclusive [inhibitor, single point]",–
COc1ccc(CN2CCC(c3nc4ccc(Cl)cc4[nH]3)CC2)cc1,"inconclusive [inhibitor, partial curve]",–
O=c1[nH]c(NCc2ccccc2)nc2c1CCCC2,–,inactive: 3.77%
CCOC(=O)c1c(C)n(CCN2CCN(C)CC2)c2ccc(OC)cc12,"inconclusive [inhibitor, single point]",–
COc1ccc(CNC(=O)c2ccc(Cn3nc(C)c([N+](=O)[O-])c3C)o2)cc1,"inconclusive [inhibitor, full curve]",–
COc1cccc(NC(=O)C2CCN(c3cnccn3)CC2)c1,–,inactive: 5.19%
COC(=O)c1ccccc1NC(=O)c1cc[n+]([O-])cc1,"inconclusive [inhibitor, single point]",–
CC(C)Oc1cc(NC(=O)CS(=O)CC(=O)Nc2cccc(C(F)(F)F)c2)c(Cl)cc1Cl (stereo unspecified),"inconclusive [inhibitor, single point]",–
CC[C@]12c3[nH]c4cc(-c5ccco5)ccc4c3CCN1C(=O)[C@@H](CC(=O)NCc1ccc(OC)c(OC)c1)C[C@@H]2C(=O)N1CCN(C(=O)c2ccco2)CC1,"inconclusive [inhibitor, partial curve]",–
O=C(CCCC(=O)NN=Cc1ccccc1Cl)NN=Cc1ccccc1Cl,–,inactive: -25.3%
